# From publication PMC4336329 (PLoS ONE, 2015)
# The whole screen tested about 310,000 compounds, of which about 2,200 (0.71%) showed an effect of 50% or more. Effects have a minus sign here. Some of the results follow.
# Target: human ether-à-go-go-related gene (hERG) potassium channel (human, UniProt Q12809)
# Test: primary screen, population patch clamp on CHO cells stably expressing hERG
# Chain of human ether-à-go-go-related gene (hERG) potassium channel (Q12809 whole entry, looked up): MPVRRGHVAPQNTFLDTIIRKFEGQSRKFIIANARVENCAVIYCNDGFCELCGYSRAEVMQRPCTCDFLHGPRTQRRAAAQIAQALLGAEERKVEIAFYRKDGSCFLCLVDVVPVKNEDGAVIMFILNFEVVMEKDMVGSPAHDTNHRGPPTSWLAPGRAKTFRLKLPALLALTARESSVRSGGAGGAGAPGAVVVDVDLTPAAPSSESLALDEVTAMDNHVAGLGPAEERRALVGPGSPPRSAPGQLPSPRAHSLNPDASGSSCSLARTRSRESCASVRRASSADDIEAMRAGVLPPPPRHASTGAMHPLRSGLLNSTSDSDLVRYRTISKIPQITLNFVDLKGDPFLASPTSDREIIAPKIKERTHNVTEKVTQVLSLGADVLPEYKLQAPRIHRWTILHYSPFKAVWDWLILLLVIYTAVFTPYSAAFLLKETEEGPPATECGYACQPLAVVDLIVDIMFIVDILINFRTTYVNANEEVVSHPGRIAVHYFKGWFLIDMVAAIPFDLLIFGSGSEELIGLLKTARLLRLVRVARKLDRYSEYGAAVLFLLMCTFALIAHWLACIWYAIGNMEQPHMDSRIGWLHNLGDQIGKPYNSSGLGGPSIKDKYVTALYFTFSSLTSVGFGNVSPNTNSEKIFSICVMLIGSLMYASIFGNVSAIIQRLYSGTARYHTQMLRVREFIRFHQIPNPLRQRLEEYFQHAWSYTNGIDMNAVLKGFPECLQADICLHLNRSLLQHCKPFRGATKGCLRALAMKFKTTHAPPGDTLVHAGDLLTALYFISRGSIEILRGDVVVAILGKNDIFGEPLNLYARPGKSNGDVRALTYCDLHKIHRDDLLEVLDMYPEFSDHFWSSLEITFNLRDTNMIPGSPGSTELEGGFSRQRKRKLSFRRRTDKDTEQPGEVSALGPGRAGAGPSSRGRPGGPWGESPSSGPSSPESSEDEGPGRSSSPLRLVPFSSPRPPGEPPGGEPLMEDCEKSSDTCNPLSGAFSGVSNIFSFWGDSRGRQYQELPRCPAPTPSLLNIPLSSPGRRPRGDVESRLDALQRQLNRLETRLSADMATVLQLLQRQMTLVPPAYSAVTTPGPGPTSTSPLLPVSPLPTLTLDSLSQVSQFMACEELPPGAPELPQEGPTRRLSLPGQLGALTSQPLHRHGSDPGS
row,Structure (SMILES),"hERG current change (%, negative = inhibition) at 1uM [%]"
1,Cc1sc2nc3ccc(N4CCCCC4)nn3c(=O)c2c1C,8.77
2,COC(=O)C(C)N1C(=O)S/C(=C/c2cc(C)n(-c3ccccn3)c2C)C1=O (centres unmarked),1.54
3,CN(Cc1ccc(F)cc1)C(=O)c1cccc(S(=O)(=O)N2CCN(c3ccccc3)CC2)c1,-4.55
4,Cc1sc2ncn(CC(=O)NCCCC(=O)N3CCN(Cc4ccc5c(c4)OCO5)CC3)c(=O)c2c1C,9.66
5,Cc1cc([N+](=O)[O-])nn1Cc1ccc(C(=O)N/N=C/c2ccc(N(C)C)cc2)cc1,12.6
6,CC12CC(c3ccccc3O1)N(C(=O)c1ccco1)C(=S)N2c1ccccc1 (centres unmarked),14.1
7,COCCCNc1nc2nonc2nc1N1C[C@H]2CC[C@H]1C2,19.2
8,COc1ccc(S(=O)(=O)NCCc2ccccc2)cc1OC,10.8
9,Cc1c(NC(=O)c2ccc(Br)o2)cccc1C(=O)O,8.68
10,CCC(=O)NC(C)C(c1cccs1)N1CCN(Cc2ccccc2)CC1 (centres unmarked),12.1
11,COc1cc2sc3ccc(-c4ccc5[nH]ccc5c4)cc3c(=O)c2cc1OC,12.5
12,CC(OC(=O)Cc1ccsc1)C(=O)Nc1ccc(C(N)=O)cc1 (centres unmarked),9.72
13,Cc1cc(C(c2ccc(O)cc2)c2cc(C)c(O)cc2C)c(C)cc1O,10.2
14,CC(C)OC(=O)c1cc(-c2ccc(C=O)o2)ccc1Cl,12.1
15,O=C(COC(=O)CC12CC3CC(CC(Br)(C3)C1)C2)NC(=O)NCc1ccco1,11.9
16,Cc1ccc(NC(=O)COC(=O)CCn2c(C)csc2=O)cc1S(=O)(=O)N1CCOCC1,12.5
17,O=C(O)CSc1nc(C(F)(F)F)cc(=O)n1-c1ccccc1,14.5
18,COc1cc(-n2nnnc2SC)c(OC)cc1Cl,21
19,CCOC(=O)CSc1nc(C2CC2)cc(-c2ccc(F)cc2)c1C#N,10.3
20,O=C(c1cc2cc(F)ccc2[nH]1)N1CCN(c2cccc(Cl)c2)CC1,11.1
21,Cc1ccc(Cl)cc1NC(=S)N(Cc1ccccc1)Cc1cccnc1,12
22,O=C(Nc1cccc(F)c1)C1CCN(C(=O)NCc2ccccc2)CC1,3.89

row,Structure (SMILES),"hERG current change (%, negative = inhibition) at 1uM [%]"
1,CN(CC(=O)N1CCN(c2cccc(Cl)c2)CC1)S(=O)(=O)c1cnc[nH]1,-2.33
2,N/C(=N\OC(=O)C12CC3CC(CC(C3)C1)C2)c1ccccc1,-4.05
3,O=C(O)/C=C/C(=O)Nc1ccc(Oc2ccccc2)cc1,12.7
4,COc1ccc(-n2c(SCC(=O)Nc3ccccc3)nnc2-c2ccc(NS(=O)(=O)c3ccc(C)cc3)cc2)cc1,9.11
5,Cc1ccc(C(=O)N/C(=C/c2ccco2)C(=O)NCCCn2ccnc2)cc1,-62.5
6,CC(C)Cc1c(O)nc(SCCN2CCOCC2)[nH]c1=O.Cl,22.2
7,NC(Cc1ccc(O)c([N+](=O)[O-])c1)C(=O)O (centres unmarked),9.13
8,Cc1nnc(N/N=C/c2ccc(Br)cc2)n1N.Cl,3.68
9,COc1ccc(CCNC(=O)c2ccc3nc(N4CCOCC4)sc3c2)cc1OC,4.99
10,Cc1ccccc1Nc1nnc(SCC(=O)c2c(N)n(C)c(=O)n(C)c2=O)s1,2.74
11,CCOC(=O)CSc1nc2c(sc3ccccc32)c(=O)n1CCCN1CCOCC1,-34
12,COc1cc2c(cc1OC)-c1cc3ccc4c(c3c[n+]1CC2)OCO4,12
13,CCSC1=NCCN1C(=O)c1ccc(S(=O)(=O)N(CC)CC)cc1,11.3
14,CN(CC(=O)Nc1ccc(F)cc1)C(=O)Cn1cnc2ccc(Cl)cc2c1=O,9.11
15,C[C@H](NC(=O)c1nc[nH]c1C(=O)N1CCN(C(=O)OC(C)(C)C)CC1)c1ccccc1,10.5
16,CC1CN(C(=O)CNC(=O)Cc2cccc3ccccc23)CC(C)O1 (centres unmarked),6.58
17,N#C/C(=C\Nc1ccc2c(c1)OCCO2)C(=O)NCc1ccco1,1.22
18,OCCCc1nc2n(n1)C(c1cccs1)C=C(c1ccc(Br)cc1)N2 (centres unmarked),12.6
19,CCOC(=O)c1c(C)[nH]c(C(=O)COC(=O)c2ccc(N3CCCC3=O)cc2)c1C,-2.51
20,CCOCCc1nn2c(=O)cc(CSCC(=O)Nc3cccc(C)c3C)nc2s1,7.58
21,COc1ccc(-n2c(SCc3ccccn3)nc3c(c2=O)SCC3)cc1OC,6.15
22,CCCCNC(=O)c1cccc(C(=O)NCCCC)c1,1.41

row,Structure (SMILES),"hERG current change (%, negative = inhibition) at 1uM [%]"
1,CN(CC(=O)Nc1ccc(F)cc1)C(=O)COc1ccccc1Cc1ccccc1,5.4
2,O=C(CCn1c(=O)oc2ccc(Cl)cc21)N1CCN(c2ccccc2)CC1,6.47
3,COc1ccc([C@@H]2[C@@H]3C(=O)N(C(C)(C)C)C(=O)[C@@H]3[C@]3(Cc4ccccc4)C(=O)N(c4ccc(C)cc4)C(=O)N23)cc1,7.93
4,CCOC(=O)CC(NC(=O)Cc1ccc(F)cc1)c1ccccc1Cl (centres unmarked),11.8
5,O=C1c2ccccc2C(Nc2cccc(C(F)(F)F)c2)N1Cc1ccco1 (centres unmarked),7.35
6,CCOC(=O)CSc1nc2sc3c(c2c(=O)n1CC)CC(C)(C)OC3,-2.39
7,Cc1c(C(=O)O)oc2ccc(S(=O)(=O)NCCC3=CCCCC3)cc12,3.55
8,CCN1CCN(c2ccc(S(=O)(=O)N3CCOCC3)cc2NC(=O)c2ccccc2OC(F)F)CC1,-6.24
9,CCOC(=O)CSc1nncc2ccc(OC)c(OC)c12,8.7
10,CSc1nnc([C@@H](NC(=O)OC(C)(C)C)C(C)C)o1,5.48
11,CCCc1nc(Nc2nc3ccccc3o2)nc(C)c1C(=O)OCC,6.25
12,CCc1ccccc1NC(=O)c1cccc(Oc2ccc([N+](=O)[O-])cc2Cl)c1,8.81
13,Cc1nc([N+](=O)[O-])c(C(=O)OCc2ccccc2C#N)n1C,6.21
14,COc1ccc(-n2c(SCC(N)=O)nnc2-c2ccc(NS(=O)(=O)c3ccc(C)cc3)cc2)cc1,20.3
15,Cc1noc(C)c1COC(=O)COc1cccc2c1OC(C)(C)C2,10.7
16,CCn1c(SCC(=O)c2ccc(OC)cc2)nnc1C1CC1,14.1
17,CN(C)S(=O)(=O)c1ccc(NC(=O)COC(=O)c2ccccn2)cc1,11.9
18,COCCN(C(=O)Nc1ccc(F)cc1F)c1nc2ccccc2s1,15.8
19,CCOC(=O)C1=C(C)NC(=O)NC1c1ccc(-c2ccccc2F)o1 (centres unmarked),5.14
20,Cc1ccc(OCCSc2ncnc3nc[nH]c23)cc1,8.17
21,COc1ccc(Cl)cc1NC(=O)CNc1ccccc1CN(C)C1CCCCC1,17.1
22,O=C(Nc1ccc(-c2ccc([N+](=O)[O-])cc2)cc1)c1ccccc1F,15.3

row,Structure (SMILES),"hERG current change (%, negative = inhibition) at 1uM [%]"
1,Nc1ncc(Br)cc1S(=O)(=O)NCCC(=O)N1CCN(c2ncccn2)CC1,-11.3
2,O=C1c2ccccc2C(=O)N1c1ncn[nH]1,12.7
3,COc1ccc(/C(C)=N/NC(=O)c2cccc(S(=O)(=O)N3CCCC3)c2)c(O)c1,11.5
4,CCc1ccccc1N(C(=O)Cn1nnc2ccccc21)C(C(=O)NCCOC)c1ccco1 (centres unmarked),2.16
5,COCCCN(C(=O)Cc1ccc(Cl)c(Cl)c1)c1c(N)n(Cc2ccccc2)c(=O)[nH]c1=O,11.1
6,Cc1cccc(N(CC(=O)Nc2ccccc2-c2ccccc2)S(=O)(=O)c2ccccc2)c1C,10.5
7,CCc1nnc(NC(=O)c2cc(-c3ccccn3)nc3ccccc23)s1,9.61
8,CCOc1ncccc1C(=O)OCCCC(=O)c1ccc(Br)cc1,8.66
9,COC(=O)c1ccccc1NC(=O)C1CC(=O)N(c2ccc(F)cc2)C1 (centres unmarked),-15.5
10,Cc1nnc(SCC(=O)NC(=O)NCCC(C)C)s1,16.7
11,Cc1ccc(S(=O)(=O)N2CCCC2C(=O)O)s1 (centres unmarked),6.46
12,COCC(C)n1c(SCC(=O)NNC(=O)c2ccccc2)nc2ccccc2c1=O (centres unmarked),9.66
13,CC1(C(=O)NC2CCCC2)CCC(=O)N1Cc1ccccc1Cl (centres unmarked),7.5
14,CCOc1ccc(NC(=O)c2ccc(NC(=O)CSc3nc4ccccc4c(=O)[nH]3)cc2)cc1,5.3
15,COc1ccc(C2=NN(c3nc(-c4ccccc4)c(CC(=O)O)s3)C(c3ccco3)C2)cc1 (centres unmarked),8.19
16,Nc1cc(Cl)ccc1C(=O)OCC(=O)NC1CCS(=O)(=O)C1 (centres unmarked),-6.02
17,CCOc1ccccc1NC(=O)COn1nnc2ccccc21,11.8
18,CC(C)CCNC(=O)CCCn1c(=O)[nH]c2ccc(Br)cc2c1=O,13.5
19,CC(C)(C)c1nnc2sc(SCC(=O)c3cccs3)nn2c1=O,-7.08
20,Fc1cccc2sc(N3CCCC3)nc12,6.18
